Measured values from the supplement of paper PMC4967469.

Experiments:
FR-180204 = compound: Nc1[nH]nc2nnc(-c3c(-c4ccccc4)nn4ccccc34)cc12 [FR-180204]; experiment: Viability of human cancer cell lines after 72 h of drug (GDSC screen); settings: top dose 20 µM; top dose inferred
Description: (§1)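 Human cancer cell lines in 384-well plates, medium with 10% serum, drug for 72 h over a 256-fold dose range (nine 2-fold or five 4-fold steps up to the top dose). Adherent lines were fixed and stained with the nucleic acid dye Syto60, suspension lines read with resazurin; signal relative to control wells, capped at 0 and 100%. One two-parameter sigmoid per drug and line, fitted in a mixed model over all curves with the slope shared within a line.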

FK866 = compound: O=C(/C=C/c1cccnc1)NCCCCC1CCN(C(=O)c2ccccc2)CC1 [FK866]; experiment: as above; settings: top dose 1 µM; top dose inferred
Description: as §1

| Cell Line | AUC (FR-180204) | IC50 (FR-180204) [nM] | AUC (FK866) | IC50 (FK866) [nM] |
| --- | --- | --- | --- | --- |
| NCI-H1944 (lung adenocarcinoma, adherent) | 0.943 | > 20000 | 0.972 | > 1000 |
| NCI-H1975 (lung adenocarcinoma, adherent) | 0.967 | > 20000 | 0.965 | > 1000 |
| NCI-H1993 (lung adenocarcinoma, adherent) | 0.926 | > 20000 | 0.918 | > 1000 |
| NCI-H2009 (lung adenocarcinoma, adherent) | 0.986 | > 20000 | 0.728 | 290 |
| NCI-H2023 (lung adenocarcinoma, adherent) | 0.974 | > 20000 | 0.764 | 452 |
| NCI-H2029 (small cell lung carcinoma, adherent) | 0.982 | > 20000 | 0.974 | > 1000 |
| NCI-H2030 (lung adenocarcinoma, adherent) | 0.941 | > 20000 | 0.299 | 15.6 |
| NCI-H2081 (small cell lung carcinoma, suspension) | 0.972 | > 20000 | 0.24 | 10.6 |
| NCI-H2085 (lung adenocarcinoma, adherent) | 0.961 | > 20000 | 0.919 | > 1000 |
| NCI-H2087 (lung adenocarcinoma, semi-adherent) | 0.976 | > 20000 | 0.958 | > 1000 |
| NCI-H2110 (non-small cell lung carcinoma, adherent) | 0.875 | > 20000 | 0.985 | > 1000 |
| NCI-H2122 (lung adenocarcinoma, adherent) | 0.988 | > 20000 | 0.732 | 272 |
| NCI-H2135 (non-small cell lung carcinoma, adherent) | 0.938 | > 20000 | 0.97 | > 1000 |
| NCI-H2141 (small cell lung carcinoma, suspension) | 0.989 | > 20000 | 0.108 | < 3.91 |
| NCI-H2170 (lung squamous cell carcinoma, adherent) | 0.984 | > 20000 | 0.91 | > 1000 |
| NCI-H2172 (non-small cell lung carcinoma, adherent) | 0.947 | > 20000 | 0.918 | > 1000 |
| NCI-H2227 (small cell lung carcinoma, semi-adherent) | 0.968 | > 20000 | 0.197 | 6.8 |
| NCI-H2228 (lung adenocarcinoma, adherent) | 0.966 | > 20000 | 0.887 | > 1000 |
| NCI-H2291 (lung adenocarcinoma, adherent) | 0.98 | > 20000 | 0.982 | > 1000 |
| NCI-H2342 (lung adenocarcinoma, adherent) | 0.979 | > 20000 | 0.961 | > 1000 |
| NCI-H2347 (lung adenocarcinoma, adherent) | 0.98 | > 20000 | 0.887 | > 1000 |
| NCI-H2405 (lung adenocarcinoma, adherent) | 0.925 | > 20000 | 0.41 | 34.5 |
| NCI-H2444 (non-small cell lung carcinoma, adherent) | 0.966 | > 20000 | 0.973 | > 1000 |
| NCI-H2452 (mesothelioma, adherent) | 0.983 | > 20000 | 0.899 | > 1000 |

| Cell Line | AUC (FR-180204) | IC50 (FR-180204) [nM] | AUC (FK866) | IC50 (FK866) [nM] |
| --- | --- | --- | --- | --- |
| NCI-SNU-1 (stomach, suspension) | 0.96 | > 20000 | 0.204 | 8.05 |
| NCI-SNU-5 (stomach, suspension) | 0.989 | > 20000 | 0.543 | 82.3 |
| NEC8 (testis, adherent) | 0.986 | > 20000 | 0.051 | < 3.91 |
| NH-12 (neuroblastoma, adherent) | 0.951 | > 20000 | 0.983 | > 1000 |
| NKM-1 (acute myeloid leukaemia, suspension) | 0.911 | > 20000 | 0.135 | 4.2 |
| NMC-G1 (glioma, adherent) | 0.982 | > 20000 | 0.612 | 137 |
| NOS-1 (osteosarcoma, adherent) | 0.934 | > 20000 | 0.966 | > 1000 |
| NTERA-2 cl.D1 (testis, adherent) | 0.979 | > 20000 | 0.074 | < 3.91 |
| NU-DUL-1 (B-cell lymphoma, suspension) | 0.978 | > 20000 | 0.022 | < 3.91 |
| NUGC-3 (stomach, adherent) | 0.981 | > 20000 | 0.557 | 91.1 |
| NUGC-4 (stomach, adherent) | 0.844 | 14400 | 0.692 | 216 |
| NY (osteosarcoma, adherent) | 0.989 | > 20000 | 0.986 | > 1000 |
| OACM5-1 (oesophagus, semi-adherent) | 0.931 | > 20000 | 0.345 | 21.9 |
| OACp4C (oesophagus, adherent) | 0.87 | > 20000 | 0.26 | 11 |
| OAW-28 (ovary, adherent) | 0.916 | > 20000 | 0.843 | > 1000 |
| OAW-42 (ovary, adherent) | 0.983 | > 20000 | 0.677 | 204 |
| OC-314 (ovary, adherent) | 0.974 | > 20000 | 0.071 | < 3.91 |
| OCI-AML2 (acute myeloid leukaemia, suspension) | 0.903 | 14400 | 0.012 | < 3.91 |
| OCI-AML3 (acute myeloid leukaemia, suspension) | 0.966 | > 20000 | 0.02 | < 3.91 |
| OCI-AML5 (acute myeloid leukaemia, suspension) | 0.93 | > 20000 | 0.063 | < 3.91 |
| OCI-LY-19 (B-cell lymphoma, suspension) | 0.86 | 14700 | 0.04 | < 3.91 |
| OCI-M1 (acute myeloid leukaemia, suspension) | 0.969 | > 20000 | 0.029 | < 3.91 |
| OCUB-M (breast, adherent) | 0.981 | > 20000 | 0.679 | 183 |
| OE19 (oesophagus, adherent) | 0.984 | > 20000 | 0.417 | 35.9 |

| Cell Line | AUC (FR-180204) | IC50 (FR-180204) [nM] | AUC (FK866) | IC50 (FK866) [nM] |
| --- | --- | --- | --- | --- |
| OE21 (oesophagus, adherent) | 0.941 | > 20000 | 0.538 | 82.3 |
| OE33 (oesophagus, adherent) | 0.931 | > 20000 | 0.844 | 932 |
| OMC-1 (cervix, adherent) | 0.988 | > 20000 | 0.884 | > 1000 |
| ONS-76 (medulloblastoma, adherent) | 0.981 | > 20000 | 0.103 | < 3.91 |
| OPM-2 (myeloma, suspension) | 0.977 | > 20000 | 0.479 | 55.5 |
| OS-RC-2 (kidney, adherent) | 0.97 | > 20000 | 0.69 | 272 |
| OSC-19 (head and neck, adherent) | 0.968 | > 20000 | 0.673 | 194 |
| OSC-20 (head and neck, adherent) | 0.973 | > 20000 | 0.565 | 97.5 |
| OV-7 (ovary, adherent) | 0.95 | > 20000 | 0.598 | 134 |
| OV-17R (ovary, adherent) | 0.961 | > 20000 | 0.956 | > 1000 |
| OV-56 (ovary, adherent) | 0.989 | > 20000 | 0.717 | 249 |
| OV-90 (ovary, adherent) | 0.972 | > 20000 | 0.673 | 219 |
| OVCA420 (ovary, adherent) | 0.93 | > 20000 | 0.828 | 919 |
| OVCA433 (ovary, adherent) | 0.957 | > 20000 | 0.948 | > 1000 |
| OVCAR-3 (ovary, adherent) | 0.985 | > 20000 | 0.396 | 31.4 |
| OVCAR-4 (ovary, adherent) | 0.943 | > 20000 | 0.615 | 151 |
| OVCAR-5 (ovary, adherent) | 0.929 | > 20000 | 0.131 | < 3.91 |
| OVCAR-8 (ovary, adherent) | 0.959 | > 20000 | 0.065 | < 3.91 |
| OVISE (ovary, adherent) | 0.944 | > 20000 | 0.741 | 392 |
| OVK-18 (ovary, adherent) | 0.975 | > 20000 | 0.144 | 4.14 |
| OVKATE (ovary, adherent) | 0.923 | > 20000 | 0.951 | > 1000 |
| OVMIU (ovary, adherent) | 0.901 | > 20000 | 0.85 | > 1000 |
| OVTOKO (ovary, adherent) | 0.954 | > 20000 | 0.694 | 257 |
| P12-ICHIKAWA (T-cell lymphoblastic leukaemia, suspension) | 0.994 | > 20000 | 0.017 | < 3.91 |

| Cell Line | AUC (FR-180204) | IC50 (FR-180204) [nM] | AUC (FK866) | IC50 (FK866) [nM] |
| --- | --- | --- | --- | --- |
| P30-OHK (lymphoblastic leukaemia, suspension) | 0.948 | > 20000 | 0.018 | < 3.91 |
| P31-FUJ (acute myeloid leukaemia, suspension) | 0.995 | > 20000 | 0.174 | 9.21 |
| P32-ISH (Burkitt lymphoma, suspension) | 0.995 | > 20000 | 0.021 | < 3.91 |
| PA-TU-8902 (pancreas, adherent) | 0.978 | > 20000 | 0.559 | 93.3 |
| PA-TU-8988T (pancreas, adherent) | 0.975 | > 20000 | 0.109 | < 3.91 |
| PANC-02-03 (pancreas, adherent) | 0.909 | > 20000 | 0.535 | 79.2 |
| PANC-03-27 (pancreas, adherent) | 0.955 | > 20000 | 0.756 | 321 |
| PANC-04-03 (pancreas, adherent) | 0.959 | > 20000 | 0.853 | > 1000 |
| PANC-08-13 (pancreas, adherent) | 0.899 | > 20000 | 0.895 | > 1000 |
| PANC-10-05 (pancreas, adherent) | 0.957 | > 20000 | 0.836 | 951 |
| PC-3 (prostate, adherent) | 0.954 | > 20000 | 0.362 | 23.7 |
| PC-3 [JPC-3] (lung adenocarcinoma, adherent) | 0.843 | > 20000 | 0.839 | > 1000 |
| PC-14 (lung adenocarcinoma, adherent) | 0.927 | > 20000 | 0.496 | 61.1 |
| PCI-4B (head and neck, adherent) | 0.983 | > 20000 | 0.151 | 5.65 |
| PCI-6A (head and neck, adherent) | 0.953 | > 20000 | 0.881 | > 1000 |
| PCI-15A (head and neck, adherent) | 0.987 | > 20000 | 0.495 | 60.4 |
| PCI-30 (head and neck, adherent) | 0.974 | > 20000 | 0.733 | 342 |
| PCI-38 (head and neck, adherent) | 0.986 | > 20000 | 0.353 | 24.4 |
| PE/CA-PJ15 (head and neck, adherent) | 0.98 | > 20000 | 0.375 | 27.5 |
| PEO1 (ovary, adherent) | 0.986 | > 20000 | 0.985 | > 1000 |
| PF-382 (T-cell lymphoblastic leukaemia, suspension) | 0.985 | > 20000 | 0.035 | < 3.91 |
| PL4 (pancreas, adherent) | 0.97 | > 20000 | 0.337 | 21.6 |

The IC50 comes from the fitted curve, where viability falls to half of the control; a fit beyond the top or the lowest dose is shown as a bound at that dose. For AUC the same curve is integrated over the 256-fold range of doses and scaled to a fraction: 1 means no effect, lower means more sensitive. An inferred top dose comes from the curve model; the source does not state it.
